{"source": "PubChem BioAssay AID504706", "about": "(National Center for Advancing Translational Sciences (NCATS), 2011)", "note": "In all, about 320,000 compounds went through this assay and about 200 (0.062%) were called active. Inconclusive means that the source gave no clear call. Such entries were picked first, then a sample of the others. The call rests on the fitted dose curve; in most records, active means well fitted activation curve with a large enough effect; inconclusive means small, poorly fitted or top-dose-only effect; inactive means no such curve, though single readings can be large or run the other way. Potencies of inconclusive entries are left out as doubtful fits. Potency means the concentration at half of the fitted maximal effect; tags describe the fitted curve by direction and shape.", "data": [{"test": "qHTS assay for re-activators of p53 using a Luc reporter; further: nearly all actives have a fitted effect of over 45% in size; on activity change, positive = activation: % of control where 0% means no effect", "settings": "H1299 p53-A138V BP100-luciferase reporter, luminescence, 24 h; series mostly up to 92.2 µM; activity change, positive = activation: at the top concentration", "in_short": "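H1299 (p53-null), stable ts p53-A138V + BP100-Luc; 1000 cells/well, Opti-MEM/10% FBS; cpd 4 pt, 1:5; 24 h, 37 deg C, 5% CO2; detection reagent 10 min RT; luminescence.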", "values": [{"compound": "CSc1nnc(C(C)(C)C)c(=O)n1/N=C/c1ccccc1", "activity change, positive = activation": "inactive: -5.96%"}, {"compound": "Cc1ccc(C)n1-c1nnc(N2CCC(C(=O)NCCCN3CCN(C)CC3)CC2)s1", "Potency": "inconclusive [activator, single point]"}, {"compound": "COc1cc(N=Nc2ccccc2C(=O)O)ccc1O", "Potency": "inconclusive [activator, single point]"}, {"compound": "O=C1/C(=C/c2ccc(O)c(O)c2)SC(=S)N1Nc1ccccc1", "activity change, positive = activation": "inactive: 9.53%"}, {"compound": "CCOC(=O)CN1C(=O)S/C(=C/C=C/c2ccc(N(C)C)cc2)C1=O", "Potency": "inconclusive [activator, full curve, poor fit]"}, {"compound": "COc1cccc(C(=O)Nc2nnc(-c3cccs3)o2)c1", "Potency": "inconclusive [activator, partial curve, poor fit]"}, {"compound": "Nc1nc(SCc2ccc(Cl)cc2Cl)nc2nc3c(cc12)CCCC3", "activity change, positive = activation": "inactive: -27.9%"}, {"compound": "Nc1c(C(=O)c2ccc(Br)cc2)oc2ccccc12", "Potency": "inconclusive [activator, partial curve, poor fit]"}, {"compound": "CCC(C)NC(=O)CC(NS(=O)(=O)c1ccc(C)cc1)c1ccc(OC)cc1", "note": "(stereo unspecified)", "activity change, positive = activation": "inactive: -10.8%"}, {"compound": "CCOC(=O)N1CCc2c(sc(NC(=O)C3=COCCO3)c2C(N)=O)C1", "Potency": "inconclusive [activator, single point]"}, {"compound": "Cc1oc(-c2ccccc2)cc1C(=O)Nc1cccc(C(=O)O)c1", "Potency": "inconclusive [activator, partial curve, poor fit]"}, {"compound": "Fc1ccccc1NC(=S)NCCc1cccc(Cl)c1", "Potency": "inconclusive [activator, partial curve]"}, {"compound": "COc1cccc(NC(=S)NC(=O)/C=C/c2ccc(F)cc2)c1", "activity change, positive = activation": "inactive: 4.42%"}, {"compound": "Cc1nc(C(C)NC(=O)c2cc(COc3ccc(C)c(C)c3)on2)c(C)s1", "note": "(stereo unspecified)", "Potency": "inconclusive [activator, partial curve, poor fit]"}, {"compound": "COCCN(CC(=O)Nc1cccc(C)c1C)C(=O)c1ccc2ccccc2n1", "Potency": "inconclusive [activator, full curve, poor fit]"}, {"compound": "CCCSc1nc2c(cnn2-c2ccccc2)c(=O)n1N", "Potency": "inconclusive [activator, partial curve, poor fit]"}, {"compound": "Cc1ccc(C(c2sc3ncnn3c2O)N2CCCCC2)cc1", "note": "(stereo unspecified)", "Potency": "inconclusive [activator, partial curve, poor fit]"}, {"compound": "N#C/C(=N\\Nc1ccccc1[N+](=O)[O-])C(=N)N1CCCCC1", "Potency": "inconclusive [activator, partial curve, poor fit]"}, {"compound": "O=C(Nc1ccc(Oc2ccsc2C(=O)O)cc1)c1ccccc1F", "Potency": "inconclusive [activator, single point]"}, {"compound": "Cc1c2cnn(CC(=O)NC3CCCC3)c(=O)c2c(C)n1Cc1ccccc1", "Potency": "inconclusive [activator, partial curve, poor fit]"}, {"compound": "Cc1ccc(-c2nc(-c3ccncc3)no2)cc1C", "Potency": "inconclusive [activator, single point]"}, {"compound": "O=C(NCCc1ccccc1)c1nc(-c2cccs2)no1", "Potency": "inconclusive [activator, partial curve, poor fit]"}, {"compound": "COC(=O)c1[nH]c2cccc(OC)c2c1NC(=O)CCN1CCSCC1", "activity change, positive = activation": "inactive: -3.37%"}, {"compound": "Cc1nc2c(ccc3nc(NC(=O)Cc4ccccc4)sc32)s1", "Potency": "inconclusive [activator, single point]"}, {"compound": "COc1cc(-c2nnc(CSc3nnc(Nc4ccc(C(C)C)cc4)s3)o2)cc(OC)c1OC", "activity change, positive = activation": "inactive: 17.9%"}, {"compound": "COc1ccc(CCNc2oc(-c3ccc(OC)c(OC)c3)nc2C#N)cc1", "activity change, positive = activation": "inactive: -11.6%"}, {"compound": "Cc1ccccc1C(=O)N1CCc2ccccc2C1", "activity change, positive = activation": "inactive: 6.95%"}, {"compound": "Cc1cc(/C=C(\\C#N)C(=O)NC2CC2)c(C)[nH]1", "Potency": "inconclusive [activator, full curve, poor fit]"}, {"compound": "CC(C)(C)C(=O)CSc1ncnc2c1cnn2Cc1ccccc1", "activity change, positive = activation": "inactive: 1.4%"}, {"compound": "Cc1cc(Br)c(NC(=O)CSc2n[nH]c(N)n2)c(Br)c1", "activity change, positive = activation": "inactive: 2.45%"}, {"compound": "O=C(CN1CCN(S(=O)(=O)c2ccc(Cl)cc2)CC1)Nc1ccc(F)cc1F", "Potency": "inconclusive [activator, single point]"}, {"compound": "Brc1cc(Br)c2nc(-c3cccs3)ccc2c1", "Potency": "inconclusive [activator, partial curve, poor fit]"}, {"compound": "Cc1cccc(N2CCN(C(=O)c3ccncc3)CC2C)c1", "note": "(stereo unspecified)", "activity change, positive = activation": "inactive: 14.3%"}, {"compound": "CCn1c(CSc2nc3ccccc3s2)nnc1SCC(N)=O", "Potency": "inconclusive [activator, partial curve, poor fit]"}, {"compound": "CC(C)Cn1c(N)c(C(=O)COC(=O)CC23CC4CC(CC(C4)C2)C3)c(=O)n(C)c1=O", "Potency": "inconclusive [activator, single point]"}, {"compound": "Cc1nc2sc(-c3ccccc3)nn2c(=O)c1Br", "Potency": "inconclusive [activator, partial curve, poor fit]"}, {"compound": "CCOC(=O)C(C)Sc1nc(-c2cccs2)ccc1C#N", "note": "(stereo unspecified)", "Potency": "inconclusive [activator, partial curve, poor fit]"}, {"compound": "CC1CC2=C(C(=O)O1)C(c1ccc(Cl)cc1)Nc1ccccc1N2", "note": "(stereo unspecified)", "Potency": "inconclusive [activator, single point]"}, {"compound": "COc1ccc(C(CNC(=O)c2oc3ccccc3c2C)N2CCCC2)cc1", "note": "(stereo unspecified)", "activity change, positive = activation": "inactive: -7.31%"}, {"compound": "CCc1cc(=O)oc2cc(OC(C)=O)cc(OC(C)=O)c12", "activity change, positive = activation": "inactive: -8.4%"}, {"compound": "O=C(Nc1ccc2c(c1)CCC2)c1cnccn1", "Potency": "inconclusive [activator, full curve, poor fit]"}, {"compound": "FC(F)(F)c1ccccc1/C=N/N1CCN(Cc2ccccc2)CC1", "activity change, positive = activation": "inactive: 19%"}, {"compound": "CCc1cc(-c2[nH]ncc2-c2nc3ccccc3n2C)c(O)cc1O", "activity change, positive = activation": "inactive: -7.24%"}, {"compound": "Cc1c(C(=O)OC2CCCC2C)[nH]c2c1C(=O)CCC2", "note": "(stereo unspecified)", "Potency": "inconclusive [activator, partial curve, poor fit]"}, {"compound": "Cc1ccc(C(=O)NC(=S)Nc2ccccc2C(F)(F)F)cc1", "Potency": "inconclusive [activator, single point]"}, {"compound": "O=C(Nc1ccc(Cn2cccn2)cc1)c1ccc(COc2ccccc2Br)cc1", "activity change, positive = activation": "inactive: 8.07%"}]}]}
